# Laboratory results taken from ChEMBL document CHEMBL4888484, “Replenishing the malaria drug discovery pipeline: Screening and hit evaluation of the MMV Hit Generation Library 1 (HGL1) against asexual blood stage Plasmodium falciparum ,using a nano luciferase reporter read-out” (2022).
# Among all 150,000 compounds or so, about 540 (0.36%) showed an effect of 50% or more. The list shows a part of the results.
# System: Plasmodium falciparum
# Assay: Primary screen in NF54 nanoGlo assay, in single point, at 2uM, 72h; a lower Z score goes with more inhibition
# Format: functional, Erythrocyte
# Conditions: timepoint 72 hour
SMILES,% Inhibition [%],Z score
CCN1C[C@H](CN(C)CC(=O)N(C)Cc2ccsc2)Oc2ccccc21,-7,1.06
COc1ccc2[nH]c3c(c2c1)CCN(C(=O)c1ccc(C)c(C)c1)[C@@H]3c1ccccc1OC,84,-11.27
COc1cccc(CNCc2ccc(F)c(CO)c2)n1,4,-0.5
CCn1nccc1C(=O)Nc1nnc(-c2ccco2)o1,-6,1.08
CCCn1nnn(-c2cc(N(S(=O)(=O)CC)S(=O)(=O)CC)c(Cl)cc2F)c1=O,-15,1.78
CN1CCOc2ccc(C(=O)N3CC[C@H](CCO)C3)cc21,-4,0.59
COCC(=O)N[C@@H]1CN(C(=O)c2ccoc2C(C)C)C[C@H]1c1nccn1C,-9,1.51
Cc1nc(NC(=O)c2cccc(CC#N)c2)c(C(=O)NCCO)n1C,10,-0.92
Cc1ccc2oc(C(=O)N3CCOC[C@H]3C#N)cc2n1,-17,1.97
CC(C)c1csc(CN2CCc3[nH]cnc3[C@@H]2c2ccoc2)n1,-5,0.68
Cc1[nH]c(CN2CCN3C(=O)CN(C)C(=O)[C@@H]3C2)cc1C#N,-4,0.74
CC1CN(C(=O)c2c[nH]c(=O)[nH]2)C(C)CO1 (stereo not drawn),-11,1.81
Cc1ccc([C@H](O)c2ccccn2)cc1NC(=O)C1CN(C2CCCCC2)C1,1,-0.07
CCCCNC(=O)N(CC(=O)N(Cc1ccccc1)Cc1ccc(C)o1)C(C)C,2,-0.38
OCCNc1nc(-c2c[nH]c3ccccc23)ncc1F,-13,1.6
C[C@H](NC(=O)Nc1nccn(C)c1=O)c1ncc(-c2ccccc2)o1,-7,0.74
Cc1cc(C(=O)N[C@@H](C)C(C)(F)F)cnn1,7,-0.96
C[C@H](Oc1cccc(-n2ccc(-c3cnccn3)n2)c1)C(N)=O,-12,1.69
O=C(Nc1ccsc1C(=O)N[C@H]1CCCOCC1)c1ccncc1,-8,1.19
O=S(=O)(CCc1ccccc1)c1nnc[nH]1,-6,0.83
CCc1ccccc1CC(=O)N[C@H](C#N)C1CCCCC1,-1,0.24

SMILES,% Inhibition [%],Z score
COC(=O)[C@H](NCC(=O)Nc1nc(C)cs1)c1c(C)cccc1C,1,-0.08
CCOc1cc(CCCNC(=O)c2cnn(C)c2)ccc1OC,1,-0.25
CC(C)[C@H](Cn1nccn1)NC(=O)CCc1c(Cl)cccc1Cl,-3,0.45
CCN1CCC(N(CCc2ccccn2)Cc2[nH]cnc2C)CC1,-19,1.99
Cn1cc(NC(=O)N2CCOCC(F)(F)C2)c(C2CC2)n1,1,-0.18
CCc1cc(CC)n(-c2nc3c(c(=O)[nH]c(=O)n3C)n2CCc2ccccc2)n1,-26,2.37
C[C@H](N)c1ccc(CNC(=O)c2cn3c(n2)CCCC3)cc1,14,-1.63
COc1ccc(C[C@@H](c2nc3ccccc3[nH]2)c2ncc(-c3ccccc3)s2)cc1,-6,0.71
Cc1ccc(S(=O)(=O)Nc2cc3nc4ccccc4nc3n2CCc2ccccc2)cc1,100,-10.64
COc1ccc([C@@H]2CCCN2C(=O)CN2CCCC2=O)cc1OC,-36,4.18
O=C(CCC1CCCC1)NCCn1ccnc1,-25,2.9
OCC1CCCN(C2CCc3ccccc3C2)C1 (stereo not drawn),-17,2.51
CC(C)(C)c1nccn1C[C@H]1COc2ccccc2O1,-12,1.86
CCOCC1CCN(CCc2ccc3c(c2)CCO3)CC1,-4,0.71
O=S(=O)(c1cccnc1)N1CC(c2cccnc2)C1,-7,1.37
CCS(=O)(=O)N1CC[C@H](Oc2nc(C)cc(C)n2)C1,-4,0.8
CCCS(=O)(=O)N1CCCC(C(=O)N2CC(C)OC(CO)C2)C1 (stereo not drawn),1,-0.11
O=C(c1ccn2nnnc2c1)N(Cc1ccsc1)C1CCCCC1,4,-0.54
COCCN1C[C@@H](c2nc(C3CCOCC3)n[nH]2)CCC1=O,-5,0.81
Cc1nn(C)c(C(=O)NCC[C@H]2CCCOC2)c1Cl,-9,1.46
O=C1CCC(=O)N1c1nc2n(n1)[C@H](c1ccccc1)C=C(c1ccccc1)N2,3,-0.36

SMILES,% Inhibition [%],Z score
CC(C)(CNC(=O)c1ccc2nc[nH]c2n1)c1cccc(Cl)c1F,-2,0.23
COCCc1ncc(-c2nc3cc(F)ccc3cc2-c2ccccc2)cn1,1,-0.12
COc1ccc(C(OC[C@H]2O[C@@H]3[C@@H](Oc4nc(=O)ccn43)[C@@H]2O)(c2ccccc2)c2ccc(OC)cc2)cc1,3,-0.33
CN1CCC(N(CCc2ccccc2)C(=O)c2cnn(C)c2)CC1,-15,1.95
Cc1cc(Cl)c2c(c1)[C@]1(C(=O)N2)[C@@H]2C(=O)N(c3ccc4c(c3)OCO4)C(=O)[C@@H]2[C@@H]2CCCN21,7,-0.88
CC(C)Cc1nc(Cn2nnnc2N)n(-c2ccccn2)n1,-11,1.05
CC(C)(C)OC(=O)C1CC(O)C(NC(=O)c2ccc(O)c(F)c2)C1 (stereo not drawn),-7,0.91
CS(=O)(=O)N[C@H]1C[C@H]2C(=O)Nc3ccc(-c4ccc(F)cc4F)cc3C(=O)N2C1,33,-3.71
COCCN1CCN(Cc2nc(NCCc3ccccc3OC)c3ccccc3n2)CC1,-1,0.11
CCCOc1cccc(CCN[C@H]2CCCc3c2cnn3C)c1,-9,0.88
CCc1onc(C)c1NC(=O)C(=O)NCCC1CCC1,-12,1.93
CN(Cc1cc2n(n1)CCCNC2)Cc1noc2c1CCCC2,-2,0.23
CC[C@H](C)[C@@H](C(=O)Nc1ccc(Cl)cn1)n1cnnn1,-6,0.77
COc1ccnc(NCC2(c3ccccc3OC)CCOCC2)n1,-5,0.49
O=C(NC[C@H]1CCOC1)c1cccc(S(=O)(=O)N2CCCCCCC2)c1,-19,2.09
CN1CCC[C@H](C(=O)NCc2ccc(Cl)cc2Cl)C1,-16,1.37
CN[C@H]1CCCc2c(OC)ccc(Cl)c21,-1,0.15
CCCS(=O)(=O)N1CCC[C@H](C(=O)Nc2ccc(OC)c(N3CCCC3=O)c2)C1,-7,1.28
COCC(C)NCC(C)c1cccs1 (stereo not drawn),-5,0.71
CN1CCN(c2ccccc2NC(=O)c2cccc3c(Br)cccc23)CC1,6,-0.77
CC[C@@H](CC(F)(F)F)NC(=O)c1nc(C)c(C)[nH]c1=O,-2,0.36

SMILES,% Inhibition [%],Z score
Cc1ccc(CN2CCN(Cc3ccc(C)o3)[C@@H]3CS(=O)(=O)C[C@@H]32)cc1,-9,1.79
O=C1N[C@@](CCCc2ccccc2)(C2CCNCC2)C(=O)N1Cc1ccncc1,1,-0.2
Cc1ncsc1CN[C@@H](C(N)=O)c1cccc(Br)c1,-11,1.16
COc1ccccc1C1(CNC(=O)C[C@@H](CC(=O)O)c2cccs2)CCOCC1,-3,0.43
COCC1(c2noc(-c3conc3C3CC3)n2)CCOCC1,-1,0.16
CC(C)[C@H](NC(=O)OC(C)(C)C)C(=O)NC[C@H]1CC[C@H](C(=O)N[C@H](C)C(=O)O)CC1,0,0.06
O=C(NCc1ccncc1)[C@]1(F)CCCN(Cc2c[nH]nc2-c2ccc(F)cc2)C1,-25,2.23
CN(C(=O)CNC(=O)c1ccccc1)c1ccccc1,30,-3.91
Cc1cc(=O)n2nc(-c3ccc(Cl)cc3)nc2n1CC(=O)N1CCCCCC1,-3,0.41
CC(C)[C@@H](C(N)=O)n1cc(-c2nc3ccccc3n2C(C)C)nn1,-6,0.94
CCOc1ccc2ncc(C#N)c(N3CCC(C(=O)N4CCCC4)CC3)c2c1,8,-0.94
Cc1nnc(-c2ccccc2-c2cc(NCC(=O)O)nc3[nH]ccc23)s1,8,-1.59
O=C(NCCN1C(=O)COC1=O)c1ccncc1,14,-1.84
Nc1ncccc1CN1CCC(O)(c2cccc(C(F)(F)F)c2)CC1,-11,1.56
CN(C(=O)c1cc(COc2c(F)cccc2F)on1)C(C1CC1)C1CC1,-14,1.48
Cn1cnc(NC(=O)C(C)(C)C(F)F)n1,-7,1.44
O=C(CCC1CCCC1)N1CCN(Cc2ccccc2)c2ncccc21,-9,1.07
CCc1nnc2c(NC(=O)Cc3ccsc3)cccn12,-8,1.3
CC[C@H](C)C(=O)N1CC(OC(=O)Nc2cccc(F)c2)C1,-8,1.12
Cc1cc(C)c(C#N)c(N2CCC[C@H](CNC(=O)c3sc(C)nc3C)C2)n1,-6,0.89
O=C(N[C@H](Cc1ccccc1)C(=O)Nc1ccccc1)c1cc[nH]n1,9,-0.94
